# Hit rate of the full screen: of about 310,000 compounds, about 2,200 (0.71%) showed an effect of 50% or more. Effects have a minus sign here. The list shows a part of the results.
# Target: human ether-à-go-go-related gene (hERG) potassium channel (human, UniProt Q12809)
# Experiment: primary screen, population patch clamp on CHO cells stably expressing hERG
# Chain of human ether-à-go-go-related gene (hERG) potassium channel (Q12809 whole entry, looked up): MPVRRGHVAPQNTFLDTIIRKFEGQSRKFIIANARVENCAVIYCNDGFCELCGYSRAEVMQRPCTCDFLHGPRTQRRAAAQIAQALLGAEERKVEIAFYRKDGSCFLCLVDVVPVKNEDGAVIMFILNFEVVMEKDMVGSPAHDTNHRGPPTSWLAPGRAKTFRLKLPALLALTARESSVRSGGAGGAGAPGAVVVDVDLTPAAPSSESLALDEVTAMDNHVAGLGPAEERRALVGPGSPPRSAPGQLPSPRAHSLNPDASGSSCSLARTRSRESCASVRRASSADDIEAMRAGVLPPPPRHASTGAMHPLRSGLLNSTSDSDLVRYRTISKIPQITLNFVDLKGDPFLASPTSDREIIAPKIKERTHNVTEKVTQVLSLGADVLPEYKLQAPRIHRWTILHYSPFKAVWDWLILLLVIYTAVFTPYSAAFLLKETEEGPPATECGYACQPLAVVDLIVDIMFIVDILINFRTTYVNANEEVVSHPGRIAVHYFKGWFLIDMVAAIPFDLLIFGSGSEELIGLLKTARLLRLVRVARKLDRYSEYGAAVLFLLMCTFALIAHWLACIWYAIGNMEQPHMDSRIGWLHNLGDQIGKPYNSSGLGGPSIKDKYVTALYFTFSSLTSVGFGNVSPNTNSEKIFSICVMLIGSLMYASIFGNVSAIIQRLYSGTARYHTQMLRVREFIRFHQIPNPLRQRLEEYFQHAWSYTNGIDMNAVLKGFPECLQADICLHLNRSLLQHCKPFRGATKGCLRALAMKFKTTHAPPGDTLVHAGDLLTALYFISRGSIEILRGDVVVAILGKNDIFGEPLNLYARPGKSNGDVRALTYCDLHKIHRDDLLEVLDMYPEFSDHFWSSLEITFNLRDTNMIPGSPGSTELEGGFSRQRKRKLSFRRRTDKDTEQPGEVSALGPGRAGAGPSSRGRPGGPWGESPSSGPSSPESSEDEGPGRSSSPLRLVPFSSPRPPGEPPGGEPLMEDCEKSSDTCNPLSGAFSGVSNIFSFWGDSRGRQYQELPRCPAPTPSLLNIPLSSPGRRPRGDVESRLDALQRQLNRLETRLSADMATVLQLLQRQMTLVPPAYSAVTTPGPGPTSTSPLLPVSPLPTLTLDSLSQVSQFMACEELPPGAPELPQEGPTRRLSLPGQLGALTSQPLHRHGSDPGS
row,Structure (SMILES),"hERG current change (%, negative = inhibition) at 1uM [%]"
1,COc1ccc(N2C(=O)NC(=O)/C(=C\c3cn(CC(=O)N4CCOCC4)c4ccccc34)C2=O)c(OC)c1,9.03
2,CC(NCc1ccccc1Cl)C(=O)Nc1ccc(S(=O)(=O)N2CCCC2)cc1 (stereo not drawn),15.5
3,COc1ccc(N2Cc3cccc(C(=O)O)c3C2=O)cc1,0.823
4,O=C(/C=C/c1ccccc1)Nc1cc(NC(=O)/C=C/c2ccccc2)cc(C(=O)O)c1,13.8
5,COCc1cc(C)nc(SCc2ccc(Cl)cc2)c1C#N,-4.21
6,Cc1cccc(-n2ncc3c(=O)[nH]c(SCC(=O)NCCC4=CCCCC4)nc32)c1,17.5
7,COc1ccc(-n2cc(CNCc3cccnc3)c(-c3cccc(F)c3)n2)cc1,9.07
8,C[C@@H](OC(=O)N1CCCCC1)[C@H]1O[C@]2(C)CCCC[C@H]1O2,8.67
9,c1cncc(-c2nnc(-c3cccnc3)nn2)c1,10.2
10,CCCCNC(=O)Cc1coc2ccc3ccccc3c12,-3.45
11,O=C(NCc1ccc2c(c1)OCO2)c1c(O)c2cccc3c2n(c1=O)CCC3,4.97
12,CCOC(=O)C1=C(CN2CCSCC2)NC(=O)NC1c1cccc([N+](=O)[O-])c1 (stereo not drawn),2.95
13,COc1ccc(C(=O)NC2=Nc3ccccc3N=C(C)C2c2ccccc2)cc1 (stereo not drawn),3.47
14,COc1ccccc1Nc1nccc(N(C)C)c1C#N,11.1
15,O=c1[nH]c(-[n+]2ccc3ccccc3c2)c(/C=N/N=C(\[O-])c2ccccc2)s1,15
16,OC1/C(=C/c2ccccc2C(F)(F)F)N2CCC1CC2 (stereo not drawn),7.33
17,Cc1c(N2C(=O)c3ccccc3C2=O)c(=O)n(-c2ccccc2)n1C,-12.3
18,O=C(NC(CO)(CO)CO)c1coc(=O)c(Br)c1,10.7
19,CCOc1cccc(/C=N/Nc2nc(N3CCCC3)nc(N3CCCC3)n2)c1O,13.5
20,COC(=O)c1ccc(SCC(=O)NC2CCCC2)c([N+](=O)[O-])c1,1.34
21,COCCCn1c(=O)/c(=C\c2cccc(OC)c2OC)s/c1=C(/C#N)C(=O)Nc1ccc(C(=O)O)cc1,9.59
22,COc1ccc(F)cc1C(=O)C1CCCN(Cc2c[nH]c3ccccc23)C1 (stereo not drawn),-18.6
23,Cc1cc(NC(=O)COC(=O)c2c(C)nn(Cc3ccccc3)c2C)no1,-0.494
24,Cc1ccc(S(=O)(=O)N2CCC(=O)N(C(COCc3cccc(C(F)(F)F)c3)Cc3ccccc3)CC2)cc1 (stereo not drawn),8.15
25,CCCCn1nc2cc(C(=O)NCC34CC5CC(CC(C5)C3)C4)ccc2c1OC,9.66
26,Cn1c(-c2ccccc2)nc2cnccc21,6.29
27,Cc1cc(OC(=O)c2ccc(F)cc2)c([N+](=O)[O-])c(=O)[nH]1,17.1

row,Structure (SMILES),"hERG current change (%, negative = inhibition) at 1uM [%]"
1,O=C(N/N=C/c1ccco1)c1ccccn1,8.4
2,CC1CCN(C2(O)C(=O)Nc3ccc(Br)cc32)CC1 (stereo not drawn),6
3,CCOC(=O)CN(C(=O)CSc1nnc(-c2cccc(OC)c2)o1)c1ccc(F)cc1,-11.6
4,O=C(O)CC(CC(=O)Nc1ccc(Oc2ccccc2)cc1)c1ccccc1 (stereo not drawn),12.2
5,O=C(O)c1ccccc1C(=O)NNc1ccc(F)cc1F,1.29
6,O=C(NCc1ccc(F)cc1)c1cccc(S(=O)(=O)N2CCCC2)c1,-6.47
7,COc1cccc(C(=O)/C=C/Nc2ccc(S(=O)(=O)Nc3cnc4ccccc4n3)cc2)c1,-6.65
8,COc1ccc(C2=NN(CN3C(=O)C(=O)c4ccccc43)C(c3ccc(OC)cc3)C2)cc1 (stereo not drawn),11.5
9,CCOC(=O)c1ccccc1NC(=O)N[C@@H](C)C(=O)OC,10.5
10,COc1ccc(N2CCN(C(=O)c3cccc(N4C(=O)C5C6C=CC(C6)C5C4=O)c3)CC2)cc1 (stereo not drawn),8.23
11,O=C(Nc1ccc2c(c1)OCO2)C1CC(=O)N(c2ccc(F)cc2)C1 (stereo not drawn),10
12,O=C1CC2C(CC(OC(=O)c3ccc(-c4ccccc4)cc3)C2CO)O1 (stereo not drawn),9.75
13,Cc1cccc(C(=O)NCc2ccco2)c1,14.9
14,C#CCOCCOCCOCCNc1nc(N2CCN(C(=O)Cn3cc(CCO)nn3)CC2)nc(N2CCN(C(=O)[C@H]([C@@H](C)O)n3cc(CCCC[NH3+])nn3)CC2)n1.[Cl-],11.6
15,COc1ccc(S(=O)(=O)N2CCCCCC2)cc1C(=O)N(C)CC(=O)Nc1ccccc1Cl,2.81
16,COc1ccccc1N1CCN(C2CC(=O)N(c3ccc(Cl)cc3)C2=O)CC1 (stereo not drawn),17.5
17,COc1ccc(NC(=O)CSc2nc(=O)n(CCN3CCOCC3)c3c2CCC3)cc1,12.5
18,Cc1ccc(OCc2cc(C(=O)N3CCN(C4CCCC4)CC3)no2)cc1C,5.22
19,COc1cc(CNCc2ccccn2)ccc1OCc1ccccc1Cl.Cl,-1.56
20,CCCCCCn1c(SCC(=O)c2ccccc2)nc2c1c(=O)[nH]c(=O)n2C,0.521
21,COc1ccc(OC)c(NC(=O)CSc2nnc(Cn3c(=O)sc4ccccc43)n2C)c1,-14.6
22,O=C(COC(=O)CCSc1ccccc1)NCc1ccccc1Cl,8.01
23,CCOc1cc2[nH]c(=S)n(CCOC)c(=O)c2cc1OCC,11.1
24,O=C(CN1C(=O)CSc2ccc(S(=O)(=O)N3CCCCC3)cc21)NCc1ccccc1,-4.88
25,CCOc1ccc(C(CC(=O)O)NC(=O)c2cccs2)cc1 (stereo not drawn),10.3
26,COc1cccc(CC(=O)NCC2(N3CCCCC3)CCCCC2)c1,33.4
27,NC(=O)C1CCN(C2CC(=O)N(c3cccc(F)c3)C2=O)CC1 (stereo not drawn),-16
